In all, about 150,000 compounds went through this assay and about 540 (0.36%) showed an effect of 50% or more. The list shows a part of the results.

This test has as its system Plasmodium falciparum. In words: Primary screen in NF54 nanoGlo assay, in single point, at 2uM, 72h; a lower Z score goes with more inhibition. Particulars: timepoint 72 hour. In kind it is functional, Erythrocyte.
With `CC(=O)C1CCCCN1S(=O)(=O)C[C@]12CC[C@@H](CC1=O)C2(C)C` (stereo partly specified), the “% Inhibition” value turned out to be 4% and the Z score is reported as -0.8.
The corresponding values for `Cc1cc2n(n1)CCCN2CC(=O)Nc1c(C)cccc1C` are -10% and 1.78.
The corresponding values for `COc1ccc(N2CCN(C(=O)c3ccc4cn[nH]c4c3)CC2)cc1` are -10% and 1.7.
The corresponding values for `CCc1nnc(CN[C@]2(C(F)(F)F)CCc3ccccc32)o1` are -3% and 0.28.
As for `Cc1n[nH]c(C)c1CNCCOc1ccccc1`, the “% Inhibition” value was -5% and the Z score came to 0.7.
The corresponding values for `CC1CN(CC(O)CN2CCc3cncnc3C2)CC(C)O1` (stereo unspecified) are -3% and 0.47.
The like results for `CCc1ccc2c(c1)[C@]1(C(=O)N2)N2CCC[C@H]2[C@@H](C(=O)c2cccc(OC)c2)[C@]12C(=O)Nc1ccccc12` were, in that order, -16% and 1.42.
For `CC1(CNC(=O)c2[nH]ccc2C2CC2)CCOCC1`, the “% Inhibition” value worked out at 28% and the Z score is -3.17.
The corresponding values for `CCC1C(C)CCN1C(=O)CCCCN1C(=O)c2ccccc2C1=O` (stereo unspecified) are -5% and 0.59.
The like results for `Cc1nn(C)cc1-c1csc(CC(F)(F)F)n1` were, in that order, 15% and -1.77.
For `Cc1nc2ccccc2c(C)c1CC(=O)N(Cc1nnc(-c2ccc(Cl)cc2)o1)C(C)C`, the “% Inhibition” value is -15% and the Z score is on record as 2.46.
The corresponding values for `Cc1cccc(OC[C@H](C)NC(=O)N2CCOCC2)c1` are 4% and -0.5.
The like results for `C=C(C)CN1C(=O)N[C@@](CC)(C2CCN(C(=O)Cc3c[nH]c4ccccc34)CC2)C1=O` were, in that order, 6% and -0.73.
With `O=C(COC[C@H]1CCCO1)Nc1cnc(C(F)(F)F)nc1`, the “% Inhibition” value is 3% and the Z score was -0.52.
The corresponding values for `Cn1ccnc1CN(CCO)C(=O)N[C@H]1CCC[C@H]1Cc1ccc(F)cc1` are -2% and 0.37.
The like results for `CC[C@H]1CCCN1C(=O)c1cnc(Cc2c(Cl)cccc2Cl)nc1O` were, in that order, -14% and 1.8.
The corresponding values for `O=C(NC1CCCCCCC1)c1cc(O)nc2ccccc12` are -18% and 3.55.
As for `c1cc(-c2cnc3nncn3c2)n2nccc2c1`, the “% Inhibition” value is -8% and the Z score was 0.83.
For `COc1cc(OC)cc(C(=O)N2C[C@H](c3nc(-c4ccncc4)no3)[C@@H](C)C2)c1`, the “% Inhibition” value was -1% and the Z score is recorded as 0.07.
The like results for `O=C(c1cc(C2CC2)n[nH]1)N1CCC(Oc2ccc(Cl)cc2)CC1` were, in that order, -11% and 2.
For `Cc1ccc(-c2nc([C@H]3CC(=O)N(c4ccc(F)c(Cl)c4)C3)no2)c(C)c1`, the “% Inhibition” value was -12% and the Z score is on record as 1.12.
The like results for `CCC1(C(=O)N2CCC[C@H](CCC(=O)O)C2)CCC1` were, in that order, -5% and 0.98.
For `O=C(O)C1CC1C(=O)NCCCc1c[nH]c2ccccc12` (stereo unspecified), the “% Inhibition” value was -25% and the Z score is 2.33.

As usually defined, the % Inhibition is the relative decrease from the control value, in per cent.

Values taken from ChEMBL document CHEMBL4888484, “Replenishing the malaria drug discovery pipeline: Screening and hit evaluation of the MMV Hit Generation Library 1 (HGL1) against asexual blood stage Plasmodium falciparum ,using a nano luciferase reporter read-out” (2022).
